The other results are listed elsewhere or left out. At the low end of the ranking, values are background and their order means little.

The target in this assay is T1, GST-Rok (full length) (UniProt O34857).
T1 sequence: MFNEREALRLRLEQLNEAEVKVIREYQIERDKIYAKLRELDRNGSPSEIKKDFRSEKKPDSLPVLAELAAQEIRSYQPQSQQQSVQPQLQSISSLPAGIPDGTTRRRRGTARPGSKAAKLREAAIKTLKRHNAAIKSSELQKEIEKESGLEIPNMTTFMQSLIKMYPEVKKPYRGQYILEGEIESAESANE
The assay can be described thus: protein binding microarray.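 Note: rank score from −0.5 (least bound) to 0.5 (best bound).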 To be noted: Rok is a gene silencer of Bacillus subtilis; high values mean tight binding; most listed sequences are background and not binding sites; double strand, one strand shown.
TGCGCGAA gave a binding signal of -0.0702 E-score. The figure for AGGAGAAG is -0.164 E-score; for CAGTTACG it is 0.0613 E-score. CGACGCTA gave a binding signal of 0.166 E-score. The sequence CATAACCG registered a binding signal of -0.0854 E-score. The figure for GCTTGGAC is -0.247 E-score; for CTCTAGCC it is -0.221 E-score; for CGTGCTTA it is 0.135 E-score. Consider CTGCCCCA, for which the binding signal was -0.322 E-score. Next, ATCCCTGC: -0.264 E-score. Next, AAGGACAA: -0.0561 E-score; AACTTCGA: -0.0299 E-score. The sequence ATTACTAC came in with a binding signal of 0.355 E-score. The figure for ATCTCAGC is -0.0883 E-score; for AGTGTAAG it is 0.113 E-score; for ACGATGTC it is 0.0937 E-score.

ACATCCGA showed a binding signal of -0.0189 E-score. As for TGGCAACA, the binding signal was -0.312 E-score.

The sequence ACTATTTA displayed a binding signal of 0.303 E-score. The figure for ACTATGCT is 0.00675 E-score; for CCTGCCGA it is -0.246 E-score; for ATTGTGTC it is -0.195 E-score. For the sequence TACAGATA, the binding signal was 0.208 E-score. The figure for CATGACGC is 0.0226 E-score; for CGAGAAGC it is -0.155 E-score; for CAGACCGC it is -0.277 E-score. For the sequence TATCTTGA, the binding signal amounted to 0.085 E-score.

For AGTCGCTG, the binding signal was -0.0206 E-score.

With CAGCTGCA, the binding signal is -0.00124 E-score. As to AAGGCGAA, the binding signal is -0.137 E-score. Next, ACCACACC: -0.000947 E-score; CCCGTGTC: -0.333 E-score; CCCCAGTC: -0.341 E-score.

Regarding GAAAATCC, the binding signal was determined as 0.164 E-score.

Turning to CATATTGA, the binding signal was determined as 0.11 E-score.

Sequence ATGCATGA came in with a binding signal of -0.0917 E-score. The sequence ACACCGCG came in with a binding signal of 0.0209 E-score. Next, CTCCACGC: -0.113 E-score; CCGGAAAC: -0.213 E-score; CGGAGTCC: -0.277 E-score. Next, ACGTTGCC: 0.0165 E-score. Next, AGATACGA: 0.213 E-score; AGCCCGTC: -0.195 E-score. ATTATGAG gave a binding signal of 0.0335 E-score.

Take GATCTGCC: the binding signal was -0.115 E-score.

Regarding ACAAGGCT, the binding signal was -0.236 E-score.

CCGTGACC came in with a binding signal of -0.161 E-score.

For the sequence GTTTTTGA, the binding signal was 0.0236 E-score.

Turning to AATCGGGC, the binding signal was -0.367 E-score. In the case of CACCCGCG, the binding signal was -0.334 E-score. Next, TCTAAAAA: -0.0064 E-score; AGGAAACG: -0.0572 E-score; ATCCCATG: -0.144 E-score. ACTTCGAT: the binding signal was found to be 0.151 E-score. On to AAACGTGG, for which the binding signal is -0.243 E-score.

On to CCCATCGC, for which the binding signal was -0.183 E-score.

ACATGCCT had a binding signal of -0.0543 E-score. The figure for AAGTCCGA is -0.308 E-score; for AGTGGGTG it is 0.0012 E-score. Next, TTGTGAAA: 0.0364 E-score; CGGAGGCA: -0.189 E-score. In turn, TGCAAACA showed a binding signal of -0.0902 E-score. Consider AAATCTAG, for which the binding signal is 0.35 E-score.

Sequence ATCAAATC returned a binding signal of -0.055 E-score. GAACGTGA came in with a binding signal of 0.026 E-score.

Regarding GCCATGCC, the binding signal was -0.26 E-score. The figure for GCCGGACC is -0.343 E-score; for AGGCAGAG it is -0.0172 E-score. The sequence ACATCAAC yielded a binding signal of 0.0258 E-score.

For AGACAGTG, the binding signal is -0.334 E-score.

ACCGCCCC gave a binding signal of -0.303 E-score.

For CGGCCTTC, the binding signal was -0.34 E-score. The figure for TATCACCA is 0.136 E-score. For the sequence ACTGTGGG, the binding signal was -0.191 E-score. Consider CAAAGTCA, for which the binding signal is -0.0714 E-score. Next, AATGAACC: -0.0458 E-score; GTCTTTTA: 0.0851 E-score. Take AACAGGAT: the binding signal was determined as 0.0137 E-score. Next, ATACAGGA: 0.199 E-score; GCAGAACA: -0.0162 E-score.

AGCTGGAA displayed a binding signal of 0.0247 E-score.

For TTCTCAAA, the binding signal was found to be 0.0849 E-score. Next, CACTAAAC: -0.0428 E-score.

Turning to ACCACTTC, the binding signal stood at 0.0646 E-score. The figure for CCTCTTGC is -0.214 E-score. The figure for CAGGCTTC is -0.374 E-score. Turning to ATATTCTC, the binding signal was 0.277 E-score. The figure for AGGCCAAA is -0.303 E-score; for CCGATCTA it is 0.24 E-score; for ATAACAGG it is -0.101 E-score. Next, CCGATCTC: 0.0583 E-score. Next, ACTCCATA: 0.119 E-score; AGGAAGGC: -0.32 E-score. The sequence TTCGACAA returned a binding signal of 0.0753 E-score. For TAGGCAGA, the binding signal is 0.0451 E-score. Regarding TACAAAAA, the binding signal worked out at 0.035 E-score. Sequence CCTCGGCG yielded a binding signal of -0.381 E-score.

The sequence AATCCCGC gave a binding signal of -0.125 E-score. Next, ATTACTTC: 0.256 E-score; ACCCCACC: -0.346 E-score. The figure for AATAAGCG is -0.0883 E-score; for AGGATACT it is 0.0415 E-score. ATGACGCC came in with a binding signal of -0.14 E-score. Next, ACACGACC: 0.097 E-score. Next, CCCTCCCG: -0.332 E-score; ACTTAACT: 0.223 E-score.

For CTTAGTGA, the binding signal was 0.0435 E-score. CAAAGCGG returned a binding signal of -0.168 E-score.

TGGAATAA showed a binding signal of 0.159 E-score. With CTAACGGA, the binding signal turned out to be 0.119 E-score. In turn, CACTTCGA came in with a binding signal of -0.128 E-score. The figure for CTTCAGCA is 0.0543 E-score.

ACCAAACC registered a binding signal of 0.00351 E-score. With CTCTTATC, the binding signal was -0.0673 E-score.

Consider AACTACCG, for which the binding signal stood at 0.417 E-score.

In the case of CGGTTGTA, the binding signal was 0.29 E-score. Next, AGCCGAAA: 0.113 E-score.

ATAGGAAA displayed a binding signal of 0.207 E-score.

In the case of AGACCTCT, the binding signal is -0.0672 E-score. Regarding ACTTACGC, the binding signal was 0.0872 E-score. Next, GTTAATAA: 0.303 E-score; AGTGAGTC: -0.0276 E-score. The figure for CTGTATGC is -0.104 E-score; for ACGGCATA it is 0.0837 E-score.

Consider AAGCCATA, for which the binding signal was -0.0252 E-score. Consider CAGGACAA, for which the binding signal came to 0.0361 E-score. Next, ATAAGTAT: 0.231 E-score; CCGCAGCG: -0.274 E-score; CTATTGAC: 0.183 E-score. On to CTATTAGA, for which the binding signal came out at 0.239 E-score. Next, CGGTGTTC: -0.0645 E-score; CCGCGGCA: -0.15 E-score. Next, AATATGCT: 0.0519 E-score; ATGAGGGA: -0.242 E-score. CGCGAAAA showed a binding signal of 0.187 E-score.

CAACGTTA: the binding signal was 0.127 E-score.

The sequence CTCATTTA yielded a binding signal of -0.143 E-score. Next, ACGTCTTG: -0.0198 E-score. Next, ACCCGTAG: -0.0701 E-score; CCGCCAGG: -0.416 E-score. The figure for AGGGCATG is -0.259 E-score. CGACCTTC yielded a binding signal of -0.238 E-score.

Sequence CGGATTAC had a binding signal of 0.0502 E-score. Next, CCGAGTAG: -0.151 E-score. For ACTACGCG, the binding signal is 0.248 E-score. Turning to CCAGAGGG, the binding signal was -0.338 E-score. In turn, AGACCTCC showed a binding signal of -0.292 E-score.

Sequence CAGCTCCG had a binding signal of -0.168 E-score. The figure for CCGGTGTA is -0.0767 E-score. As for ACAATGTC, the binding signal was -0.0674 E-score. The figure for ATGAATTC is 0.179 E-score. The figure for CTCTGGAA is -0.053 E-score; for AGCTGGCG it is -0.0548 E-score.

The sequence GCAACTAA yielded a binding signal of 0.228 E-score. As to GAGTAGGA, the binding signal amounted to 0.119 E-score. For the sequence CAGAGTAA, the binding signal came out at 0.0904 E-score.

ATGCTAGA showed a binding signal of 0.239 E-score. The figure for CATGTTAA is 0.209 E-score. For the sequence CGTATCCC, the binding signal stood at 0.00794 E-score. GGACTACC had a binding signal of -0.104 E-score. Next, AGAATAAC: 0.239 E-score; AAGATCAT: 0.014 E-score; GCGTAACA: 0.167 E-score.

As for GAATCAGA, the binding signal was 0.181 E-score. The figure for ACTTTGTA is 0.226 E-score; for GCGTCTCA it is -0.21 E-score; for CAAAACTA it is 0.383 E-score. On to GCATTTGA, for which the binding signal turned out to be 0.0429 E-score. As to CCGAATAG, the binding signal is -0.00823 E-score. ACACTGTA: the binding signal was found to be 0.173 E-score. CTCTCTCA returned a binding signal of -0.0746 E-score. The figure for GTCATAAA is 0.154 E-score.

(Values after PMC6212790.)
